The structures appear in SMILES notation. In all, about 39,000 compounds went through this assay and about 220 (0.56%) showed activity. The list shows a part of the results.
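Also: static incubation at 37 °C against the wild-type strain, values averaged over two biological replicates.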

The subject of the test is Escherichia coli K-12 BW25113. Put plainly: relative growth (OD600 normalised to plate interquartile mean) (fraction); higher = less growth inhibition, active = 0.2 or less. The conditions noted are these: 50 µM; LB; incubation time: overnight (16-24 h).
For the molecule `O=C(O)CNC(=O)[C@H]1COc2ccccc2O1`, the relative growth is inactive: 1.04.

`O=C(C[C@@H]1CC[C@H]2[C@@H](COC[C@@H](O)CN2S(=O)(=O)c2ccc(F)cc2)O1)NCCN1CCCCC1`: the relative growth is inactive: 0.967.

Take `Cc1noc(C)c1NC(=O)Nc1ccc2c(c1)CC(=O)N([C@@H](C)CO)C[C@@H](C)[C@H](CN(C)S(=O)(=O)c1cccs1)O2`: the relative growth is inactive: 1.01.

On to `C[C@H](CO)N1C[C@H](C)[C@H](CN(C)S(=O)(=O)c2cccs2)Oc2ncc(C#Cc3cccc(F)c3)cc2C1=O`, for which the relative growth is inactive: 1.04. The value for `Cc1ccc(S(=O)(=O)Nc2ccc3c(c2)C(=O)N([C@H](C)CO)C[C@H](C)[C@H](CN(C)C(=O)Nc2ccccc2)OCCCC[C@@H](C)O3)cc1` was inactive: 1; that for `CC(C)N1C[C@H](C)[C@@H](CN(C)Cc2ccc(Oc3ccccc3)cc2)Oc2c(cccc2-c2nnc(-c3ccncc3)o2)C1=O` was inactive: 1.02. The value for `C[C@H](CO)N1C[C@H](C)[C@@H](CN(C)C(=O)Nc2cccc3ccccc23)OCc2cn(nn2)CCCC1=O` was inactive: 1.01; that for `NCC[C@H]1CC[C@H](NC(=O)C2CC2)[C@H](CO)O1` was inactive: 1.04. The value for `CC(=O)OCC1=C(C(=O)O)N2C(=O)[C@@H](NC(=O)CSc3ccncc3)[C@H]2SC1` was inactive: 1.05. Turning to `C[C@@H]1CN([C@H](C)CO)C(=O)c2cc(C#Cc3cccc(F)c3)cnc2O[C@@H]1CN(C)CC1CCOCC1`, the relative growth was inactive: 1. The value for `C[C@@H]1CCCCO[C@@H](CN(C)Cc2ccc(C(=O)O)cc2)[C@H](C)CN([C@@H](C)CO)C(=O)c2cc(NS(=O)(=O)c3cccs3)ccc2O1` was inactive: 1.01. The value for `C[C@H]1CCCCO[C@@H](CN(C)Cc2ccc(C(=O)O)cc2)[C@@H](C)CN([C@@H](C)CO)C(=O)c2cc(NC(=O)Nc3ccc(C(F)(F)F)cc3)ccc2O1` was inactive: 0.995. The value for `CC(C)NC(=O)Nc1ccc2c(c1)CC(=O)N([C@@H](C)CO)C[C@@H](C)[C@@H](CN(C)Cc1ccc(-c3ccccc3)cc1)O2` was inactive: 0.993. Regarding `CNC[C@H]1Oc2c(NS(=O)(=O)c3cn(C)cn3)cccc2C(=O)N([C@@H](C)CO)C[C@@H]1C`, the relative growth is inactive: 0.994. The value for `COc1ccc(NC(=O)Nc2ccc3c(c2)C(=O)N([C@@H](C)CO)C[C@@H](C)[C@H](CN(C)Cc2ccc(C(=O)O)cc2)OCCCC[C@@H](C)O3)cc1` was inactive: 0.991; that for `C[C@H]1CN([C@@H](C)CO)C(=O)c2cc(-c3cccc(C#N)c3)cnc2O[C@@H]1CN(C)C(=O)C1CCOCC1` was inactive: 1.01.

For the molecule `C[C@@H](NC(=O)COc1ccccc1)C(=O)O`, the relative growth is inactive: 0.907. The value for `CC(=NNC(=O)c1nnn(-c2nonc2N)c1CN1CCC(C)CC1)c1cccc(Br)c1` was inactive: 1.06; that for `CCc1nc2ccc(C(=O)N3CCN(c4ccccc4)CC3)cn2c1N(CC)Cc1cccc(Br)c1` was inactive: 1.03; that for `C[C@@H]1CN([C@@H](C)CO)C(=O)c2cc(N(C)C)ccc2O[C@@H](C)CCCCO[C@@H]1CN(C)C(=O)Nc1cccc2ccccc12` was inactive: 0.983. The value for `C[C@@H]1CCCCO[C@H](CN(C)C(=O)C2CCCCC2)[C@H](C)CN([C@@H](C)CO)C(=O)c2cc(NC(=O)C3CCCCC3)ccc2O1` was inactive: 0.99; that for `C[C@H]1CN([C@@H](C)CO)C(=O)Cc2cc(NC(=O)NC3CCCCC3)ccc2O[C@@H]1CN(C)Cc1ccc(C(F)(F)F)cc1` was inactive: 1.03; that for `Cc1noc(C)c1NC(=O)Nc1ccc2c(c1)C(=O)N([C@H](C)CO)C[C@H](C)[C@H](CN(C)C(=O)Nc1cccc3ccccc13)O2` was inactive: 1.01. The value for `C[C@@H]1CN([C@@H](C)CO)C(=O)CCCn2cc(nn2)CO[C@@H]1CN(C)S(=O)(=O)c1ccc2ccccc2c1` was inactive: 1.

Turning to `Cc1noc(C)c1NC(=O)N(C)C[C@@H]1Oc2c(NC(=O)C3CC3)cccc2C(=O)N([C@H](C)CO)C[C@H]1C`, the relative growth is inactive: 0.989.

As for `CN(C)Cc1nc2c([nH]1)c(=O)[nH]c(=O)n2C`, the relative growth is inactive: 0.998. Turning to `COCC#Cc1ccc2c(c1)O[C@@H](CN(C)S(C)(=O)=O)[C@H](C)CN([C@H](C)CO)S2(=O)=O`, the relative growth was inactive: 0.986. Take `C[C@H](CO)N1C[C@H](C)[C@H](CN(C)S(=O)(=O)c2ccc(F)cc2)Oc2ccc(NC(=O)CCN3CCOCC3)cc2CC1=O`: the relative growth was inactive: 1.05. The value for `COC(=O)[C@@H](Cc1ccccc1)N[C@H](/C=C/C1CC1)[C@@H](O)CCn1cc(-c2ccc(C(=O)NO)cc2)nn1` was inactive: 0.933; that for `O=C(N[C@H]1CC[C@H](CCn2cc(C3(O)CCCC3)nn2)O[C@H]1CO)C1CCOCC1` was inactive: 0.979. The value for `C[C@H](CO)N1C[C@H](C)[C@@H](CN(C)Cc2ccc(Cl)c(Cl)c2)OCc2ccccc2-c2ccccc2C1=O` was inactive: 0.99; that for `NCc1nc(CCc2ccccc2)cs1` was inactive: 1. With `COc1ccc(NC(=O)N2C[C@H](O)COC[C@@H]3O[C@@H](CC(=O)NC4Cc5ccccc5C4)CC[C@H]32)cc1`, the relative growth is inactive: 0.993. The value for `COc1ccc(S(=O)(=O)Nc2cccc3c2O[C@@H](CN(C)S(=O)(=O)c2ccc(F)cc2)[C@H](C)CN([C@H](C)CO)C3=O)cc1` was inactive: 1.01. The value for `C[C@H](CO)N1C[C@H](C)[C@H](CN(C)C(=O)Nc2ccc(F)cc2)Oc2ncc(C#CC(C)(C)O)cc2C1=O` was inactive: 0.979; that for `O=C(O)C[C@@H]1CC[C@@H]2[C@H](COC[C@@H](O)CN2S(=O)(=O)c2ccc(F)cc2)O1` was inactive: 1.01; that for `CC(C)CCC[C@@H](C)N` was inactive: 0.959.

In the case of `COC(=O)CCCCCCC(=O)N/N=C/[C@H](O)[C@H](O)[C@@H](O)[C@H](C)O`, the relative growth was inactive: 1.01. The value for `CN(C)C(=O)[C@@H]1[C@@H](CO)[C@@H]2Cn3c(ccc(C4=CCCC4)c3=O)[C@H]1N2S(=O)(=O)c1cn(C)cn1` was inactive: 0.992; that for `C[C@@H]1CN([C@H](C)CO)C(=O)c2cc(NC(=O)c3ccccc3)ccc2O[C@@H](C)CCCCO[C@H]1CN(C)Cc1ccc2c(c1)OCO2` was inactive: 0.917; that for `CCOC(=O)C(CCc1ccccc1)NC(C)C(=O)N(CC(=O)O)C1Cc2ccccc2C1.Cl` (stereo not drawn) was inactive: 1.03. The value for `CC(=O)N1CCC2(CC1)NC(=O)NC2=O` was inactive: 0.994; that for `COc1ccc(NC(=O)N(C)C[C@@H]2OCCCC[C@@H](C)Oc3ccc(NC(=O)Nc4ccc(F)cc4)cc3C(=O)N([C@@H](C)CO)C[C@@H]2C)cc1` was inactive: 1.01; that for `O=C(C[C@H]1CC[C@H]2[C@@H](COC[C@H](O)CN2S(=O)(=O)c2cccc(F)c2)O1)NCCCN1CCOCC1` was inactive: 0.992. The value for `CN1CCN(C(=O)[C@H]2[C@H](CO)[C@H]3Cn4c(cccc4=O)[C@@H]2N3Cc2ccncc2)CC1` was inactive: 1.02; that for `C[C@H]1CN([C@@H](C)CO)C(=O)Cc2cc(NC(=O)Nc3cccc4ccccc34)ccc2O[C@H]1CN(C)C(=O)NC1CCCCC1` was inactive: 1.02; that for `O=C(CCCN1CCN(c2ccccn2)CC1)c1ccc(F)cc1` was inactive: 1.02. On to `C[C@@H]1CN([C@H](C)CO)C(=O)c2cc(NC(=O)C3CCCCC3)ccc2O[C@@H]1CN(C)Cc1ccc(-c2ccccc2)cc1`, for which the relative growth is inactive: 1.01.

For the molecule `C[C@@H]1CN([C@@H](C)CO)C(=O)c2cc(NC(=O)C3CCCCC3)ccc2O[C@@H](C)CCCCO[C@H]1CN(C)Cc1ccccc1`, the relative growth was inactive: 0.984. The value for `CC(C)[N+](C)(CCOC(=O)C1c2ccccc2Oc2ccccc21)C(C)C.[Br-]` was inactive: 1.03. The value for `O=C(C[C@H]1CC[C@@H]2[C@H](COC[C@@H](O)CN2S(=O)(=O)c2ccc(F)cc2)O1)N[C@@H]1CCN(Cc2ccccc2)C1` was inactive: 1.01. The value for `C[C@H](CO)N1C[C@H](C)[C@@H](CN(C)Cc2ccc(Cl)c(Cl)c2)OCCCC[C@H](C)Oc2ccc(NS(=O)(=O)c3ccc(F)cc3)cc2C1=O` was inactive: 0.986; that for `Cc1n[nH]c(=O)[nH]c1=O` was inactive: 1.

As for `COc1ccc(NC(=O)Nc2ccc3c(c2)CC(=O)N([C@@H](C)CO)C[C@H](C)[C@H](CN(C)Cc2ccc(Oc4ccccc4)cc2)O3)cc1`, the relative growth was inactive: 1.03. For the molecule `C[N+]1(C)C[C@@H](O)C[C@H]1C(=O)O`, the relative growth was inactive: 0.989.

Consider `C[C@@H]1CN([C@H](C)CO)C(=O)c2cc(C3=CCCCC3)cnc2O[C@H]1CN(C)C(=O)CN1CCOCC1`, for which the relative growth is inactive: 0.988. The value for `C[C@H]1CN([C@@H](C)CO)C(=O)Cc2cc(NC(=O)Nc3ccc(C(F)(F)F)cc3)ccc2O[C@H]1CN(C)Cc1ccc2c(c1)OCO2` was inactive: 1.02. The value for `Cc1noc(C)c1S(=O)(=O)N(C)C[C@H]1OCCCC[C@H](C)Oc2ccc(NS(C)(=O)=O)cc2C(=O)N([C@H](C)CO)C[C@H]1C` was inactive: 1; that for `COc1ccc(S(=O)(=O)N(C)C[C@H]2OCCCC[C@H](C)Oc3ccc(NS(C)(=O)=O)cc3C(=O)N([C@H](C)CO)C[C@@H]2C)cc1` was inactive: 1.02.

For the molecule `COc1ccc(S(=O)(=O)Nc2ccc3c(c2)C(=O)N([C@@H](C)CO)C[C@H](C)[C@H](CN(C)C(=O)Nc2ccc(C(F)(F)F)cc2)OCCCC[C@H](C)O3)cc1`, the relative growth was inactive: 1.02.

Consider `C[C@H](CO)N1C[C@H](C)[C@H](CN(C)S(=O)(=O)c2cccs2)Oc2c(NS(=O)(=O)c3cccs3)cccc2C1=O`, for which the relative growth was inactive: 1.01. The value for `COc1ccc(NC(=O)Nc2ccc3c(c2)[C@H]2C[C@H](CC(=O)N4CCN(C)CC4)O[C@H](CO)[C@H]2O3)cc1` was inactive: 1.01; that for `C[C@@H]1CN([C@H](C)CO)C(=O)c2cc(NC(=O)C3CC3)ccc2O[C@H]1CN(C)Cc1ccc(C(=O)O)cc1` was inactive: 0.983.

These data come from the supplement of paper PMC9446081.
